Laboratory results from the supplement of paper PMC3334620.
The full ranking holds about 33,000 sequences; the median of “E-score (-0.5 to 0.5)” is about -0.01, and the highest 2% start at about 0.26. The list shows a part of the results.

Target: Ste12 (UniProt P13574)
Experiment: PBM E-score (8-mer binding enrichment) (E-score (-0.5 to 0.5)); higher = stronger / more preferred TF binding; most listed sequences are background and not binding sites
Conditions: protein concentration: 200 nM; construct: GST-DNA-binding domain
Outline: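 Full-length yeast transcription factors or their DNA-binding domains, GST-tagged and expressed with PURExpress, were applied at about 100-200 nM to universal all-10-mer Agilent arrays. These arrays had been made double-stranded by primer extension on fresh or once-stripped slides. Detection used fluorescent anti-GST, normalisation used masliner, and E-scores for ungapped eight-base words pooled with reverse complements came from the Universal PBM Analysis Suite.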

Sequence	PBM E-score
ACCAGAAG	-0.0252
ACAGACTA	0.041
ATGGACTA	-0.145
CGTATGAA	0.213
CTTCTTTA	0.105
CACACGAA	0.0582
AAACCCGC	0.256
ATTCCAAT	0.108
AAGGCGCG	-0.023
ATGCAATC	0.044
CACCTTGG	-0.0715
GCAGGCTA	-0.187
ACGTGGGC	-0.245
CTGCCGGA	0.107
AAATTGGT	0.231
ATTTCCGG	0.208
ATCTTCAG	0.0575
GTGTGGCA	-0.159
CTCGATTC	-0.113
GCAAGTAA	0.0527
AACCGAAT	0.15
ATCTGTCA	0.0283
AAATATCC	0.0562
ACGCCGAC	-0.0253
TCGGTTAA	0.198

Sequence	PBM E-score
CGGGTGGA	-0.066
CTGCGAGC	0.0456
ACTGAGAC	-0.0186
ATGGCTTC	-0.0931
ATTACGCC	-0.0562
ACCATCTC	0.0579
CCCTCACA	-0.0551
AGAGGACC	-0.211
CTTTTGGA	0.134
CCGATACC	-0.231
TCCAGAGA	-0.211
TCAATAAA	0.0901
AGTGCGAT	0.139
TCTGCCCA	-0.173
GGTTTTGA	0.111
GGTTCAGA	-0.0174
ACCACCGA	-0.0704
CGACAAAA	0.114
CTGGACAA	-0.177
CAACCCAG	-0.0384
CCTCCTGC	-0.0477
AACCTTGG	-0.0674
CGCATTAA	0.144
TCTCTAAA	0.0533
GCACGCCA	-0.201

Sequence	PBM E-score
ATTGTTCG	0.0992
CAACCGAG	-0.0341
GCTCGAAA	0.0428
GCGGCGCC	0.151
ATCTCCTG	0.0702
GACCTCAA	0.0245
CAGCGAAG	-0.0903
CCCACCGC	0.0836
TATTCGCA	0.117
CGAACAAA	0.242
CTTTTCGA	0.242
GTATCGAA	0.149
CTTCACGA	-0.252
AGTATCGC	-0.0098
AAAGAACT	0.0118
GCATGGTA	-0.00394
CCATATGA	0.0986
ATAGAGGC	-0.161
ATTCAGGA	0.0603
GTGGCCAC	-0.095
AGCGTTGA	-0.0266
GACGGTGC	-0.153
GAGGCAAA	0.103
CGATGATC	-0.179
ATGTCACG	0.144

Sequence	PBM E-score
AGGGAGGC	-0.122
ACTCGCGG	0.0459
AAGACGAG	-0.11
AGTCGATG	0.0443
AAGCCAGT	-0.0914
ACTACACT	-0.0466
ACGATAAC	0.0678
ATCGCTCG	-0.0129
ACTGGAAC	-0.0203
TTTATAAA	0.271
AATCCCTG	-0.0793
ATGAGGTG	-0.144
TGGACACA	-0.15
GCAGGGTA	-0.0837
GCAGAGAC	-0.275
GAGTACGC	-0.241
TTGAGCAA	-0.0301
CAGACCAC	-0.0292
TACCGAGA	0.00779
AAGCCCCG	0.0304
AATTTGAC	0.0583
GACTCAGA	0.0539
ATTATAAA	0.232
CCTAGCGA	-0.317
GAGGTTGA	-0.0361

Sequence	PBM E-score
CGGTTAAA	0.0788
ACTGCATC	0.0193
CAGGCTTA	-0.0818
TCCGTAGA	-0.0981
TAAACCTA	0.0716
AGCGAACC	-0.133
AGGTCACT	-0.163
ACGGTAGG	-0.12
AGTGGAAC	-0.00784
CTGGGTAC	0.0125
AGGCTAGA	-0.214
CTGTCTGC	-0.23
CCTTCTAG	-0.24
ACCAGTAC	-0.11
ACTAGGCT	-0.0261
CACGCACC	-0.206
ACGGTTGG	-0.189
CTCAACCA	-0.0786
CGACCCCA	-0.0172
CGATAGCA	-0.0889
ATGATCTA	-0.0676
CTCATCAA	-0.0459
AGGGCGCC	-0.0555
CATACGGC	0.0599
GATATAGA	0.0812

Sequence	PBM E-score
AATCATCC	0.114
AAACCGTA	0.0285
ATTCGCTA	-0.176
CAGGCTCC	-0.0569
AACAAAAT	0.11
AACCTACC	0.213
AACCATCC	0.0272
AATGAACG	0.00852
AATACGAG	-0.0635
CTTCTTAC	-0.0494
AAAGCTGT	-0.0617
GCCAATAA	0.148
ACTAAGTC	-0.0994
TATAAAGA	0.0307
CCCGGCCC	-0.0346
ACTATCGC	-0.162
ACAGTCCG	-0.226
ACCCTATG	-0.126
CGTATTAA	0.00972
GCGGGGCC	0.144
CAGCCCAC	-0.0539
ACTCTCGA	-0.123
AGCTAGGG	-0.182
CGGCATTA	0.165
ATTGGGCC	-0.0142

Sequence	PBM E-score
CCCAGCGG	-0.192
ATATAATC	0.0782
AACCACGG	-0.0322
GCATGGCC	-0.114
GCCTTCCC	-0.0772
TCGTACGA	-0.0577
CATAGTTC	-0.00999
CGAACACC	-0.0456
CAATGGGG	-0.00218
CTGGGGGA	-0.112
CCGCTCTA	0.0783
AGGAGGAC	-0.381
ATGCGTAG	-0.0251
ACGATACT	0.0867
CCTGCATC	0.0487
AATGCCAG	-0.169
ATTATAGC	0.0322
CGGCGAGA	-0.167
ATGCCACC	-0.123
CTACATAC	0.0943
AGTACGAA	-0.0201
TAGTCGAA	-0.134
